Experimental data reported in article PMC4336329 (PLoS ONE, 2015).
In all, about 310,000 compounds went through this assay and about 2,200 (0.71%) showed an effect of 50% or more. The effect is printed as a negative number. The list shows a part of the results.

Molecular target: human ether-à-go-go-related gene (hERG) potassium channel (human, UniProt Q12809)
Experiment: primary screen, population patch clamp on CHO cells stably expressing hERG

human ether-à-go-go-related gene (hERG) potassium channel, sequence (Q12809 whole entry, looked up): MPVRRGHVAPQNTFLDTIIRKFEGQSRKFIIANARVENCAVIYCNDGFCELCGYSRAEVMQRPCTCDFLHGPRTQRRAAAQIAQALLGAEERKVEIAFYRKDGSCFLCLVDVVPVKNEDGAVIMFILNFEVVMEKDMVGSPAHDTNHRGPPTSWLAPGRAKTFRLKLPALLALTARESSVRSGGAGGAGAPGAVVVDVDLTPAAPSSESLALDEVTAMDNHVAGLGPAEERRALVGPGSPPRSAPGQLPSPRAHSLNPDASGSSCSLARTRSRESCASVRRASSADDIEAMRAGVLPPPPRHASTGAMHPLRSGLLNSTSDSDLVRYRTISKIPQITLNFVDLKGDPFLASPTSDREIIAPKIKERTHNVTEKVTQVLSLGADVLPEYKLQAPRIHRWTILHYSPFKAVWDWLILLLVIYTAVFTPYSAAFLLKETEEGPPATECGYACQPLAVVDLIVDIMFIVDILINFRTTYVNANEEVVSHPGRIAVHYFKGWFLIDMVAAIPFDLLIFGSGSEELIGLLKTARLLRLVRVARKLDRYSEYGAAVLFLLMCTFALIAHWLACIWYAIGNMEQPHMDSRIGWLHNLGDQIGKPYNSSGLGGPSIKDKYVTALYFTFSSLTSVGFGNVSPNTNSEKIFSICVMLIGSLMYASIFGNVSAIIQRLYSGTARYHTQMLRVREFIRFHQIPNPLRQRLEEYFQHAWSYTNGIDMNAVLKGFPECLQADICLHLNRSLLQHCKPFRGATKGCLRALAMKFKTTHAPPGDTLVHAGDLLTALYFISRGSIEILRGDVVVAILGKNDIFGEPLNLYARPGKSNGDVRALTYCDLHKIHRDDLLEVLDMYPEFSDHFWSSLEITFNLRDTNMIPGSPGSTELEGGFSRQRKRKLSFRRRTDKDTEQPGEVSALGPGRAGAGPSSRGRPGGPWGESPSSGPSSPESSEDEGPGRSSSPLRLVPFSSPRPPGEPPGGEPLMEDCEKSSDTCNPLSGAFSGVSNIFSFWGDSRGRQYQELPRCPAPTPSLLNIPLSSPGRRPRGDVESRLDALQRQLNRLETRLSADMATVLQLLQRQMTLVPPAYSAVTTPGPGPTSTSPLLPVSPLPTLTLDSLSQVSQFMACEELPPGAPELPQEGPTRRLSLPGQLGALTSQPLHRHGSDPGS

Row | Compound | hERG current change (%, negative = inhibition) at 1uM [%]
1 | Cc1ccc(S(=O)(=O)N2CCC3(CC2)CC(=O)c2ccccc2O3)cc1 | -4.84
2 | COc1ccc(C/C(N)=N/OC(=O)CCc2ccccc2)cc1 | 15.2
3 | CC(=O)c1cccc(N2C(=NC(=O)C3CCCCC3)SC3CS(=O)(=O)CC32)c1 (centres unmarked) | 13.1
4 | CCOc1ccc2nc(NC(=O)c3cnc(C)cn3)sc2c1 | 1.69
5 | Oc1ccc(/C=N/Nc2nc(N3CCCC3)nc(N3CCCC3)n2)cc1O | -0.682
6 | CCCN1CCC(=O)N([C@H](CO)Cc2ccccc2)CC1 | 6.98
7 | O=C(CNc1cccc(S(=O)(=O)N2CCCC2)c1)Nc1ccc(C(F)(F)F)cc1 | 12.3
8 | Cc1nc(C)c(C(=O)O)c(-c2cccs2)c1C(=O)O | 1.37
9 | O=C(COc1ccc([N+](=O)[O-])cc1)N(Cc1ccccc1)Cc1ccccc1 | 1.39
10 | CC(C)(C)NS(=O)(=O)c1ccc(CCC(=O)NCc2ccco2)cc1 | 9.45
11 | COc1cccc(CC(=O)Nc2nccs2)c1 | 7.99
12 | CN1CCN2c3ncccc3Cc3ccccc3[C@@H]2C1 | 6.24
13 | CC/C(=C\c1oc2cc3ccccc3cc2[n+]1CC)Nc1ccccc1.[I-] | -83.7
14 | Cc1ccc(C)n1-c1ccc(C(=O)NCc2ccncc2)cc1 | -1.09
15 | COc1ccc(C)cc1NC(=O)C1CCCN(S(=O)(=O)c2cccnc2)C1 (centres unmarked) | 7.33
16 | CCOC(=O)Nc1nc(-c2ccc(F)cc2F)cs1 | 10.4
17 | COc1ccc(CCN2CC(C(=O)NCCc3ccccn3)CCC2=O)cc1 (centres unmarked) | 2.83
18 | Cc1occc1-c1nnc(SCC(=O)c2ccccc2)n1CC1CCCO1 (centres unmarked) | 3.67
19 | CCOc1ccccc1NC(=O)CNC(=O)c1nn(-c2ccc(OC)c(OC)c2)c(=O)c2ccccc12 | 11.2

Row | Compound | hERG current change (%, negative = inhibition) at 1uM [%]
20 | O=C(COC(=O)C1=COCCO1)NCCCc1ccccc1 | 7.13
21 | O=C1CCCc2oc3c(c21)CCCC3 | -8.2
22 | CCCN(CCC)S(=O)(=O)c1cc(Br)cc2c1N(C(=O)CC)CC2 | 10.6
23 | Cc1ccc(C(C)C)cc1OCCn1cncn1 | 9.66
24 | CCCNS(=O)(=O)c1ccc(OCC(=O)Nc2ccc3c(c2)OCCO3)c(C)c1 | 1.83
25 | Cc1nonc1CN(C)C(=O)CC1C(=O)NCCN1Cc1ccccc1C(F)(F)F (centres unmarked) | 10.3
26 | Cc1ccc(NC(=O)CCNC(=O)c2ccc(Br)cc2)cc1S(=O)(=O)N1CCCCCC1 | 4.59
27 | Cc1ccc(-c2nc3ccccc3c(=O)n2-c2nccs2)cc1 | 2.71
28 | Brc1ccc(-n2c(SCc3nc4ccccc4[nH]3)nnc2-c2ccncc2)cc1 | -5.72
29 | COc1ccc(C(=O)N2CCOC2CNC(=O)C(=O)NCc2ccco2)cc1 (centres unmarked) | 6.42
30 | CC(=O)c1cccc(NC(=O)CN(c2ccccc2)S(C)(=O)=O)c1 | 4.49
31 | CCc1cccc(CC)c1NC(=O)COC(=O)c1ccc2c(c1)S(=O)(=O)c1ccccc1C2=O | 12.5
32 | CCOC(=O)c1cnc2cc(-c3ccc(Cl)cc3)nn2c1N | 0.811
33 | Cc1ccc(-c2cn3c(=O)cc(C)[nH]c3n2)cc1 | 11.9
34 | COc1ccc(C(O)(C(C)C)C(CN2CCOCC2)c2ccc(Cl)cc2)cc1.Cl (centres unmarked) | 9.24
35 | Cc1ccc(NC(=O)CN(C)c2ccc(S(=O)(=O)N3CCCC3)cn2)cc1 | 2.33
36 | CC(=O)Nc1cccc(OCCCNC(=O)c2ccc(F)cc2)c1 | 8.14
37 | Cc1ccc(-n2cnc3ncnc(-c4ccccc4)c32)cc1 | 4.68
38 | COc1cc(/C=N/N(C)S(=O)(=O)c2ccc(C)cc2)cc([N+](=O)[O-])c1O | 7.51

Row | Compound | hERG current change (%, negative = inhibition) at 1uM [%]
39 | O=C(NC1CC1)C1=C[C@H](c2coc3ccccc3c2=O)C[C@H](OCc2ccc(CO)cc2)O1 | 4.78
40 | Cc1nc2ccc(-c3ccccc3)cc2o1 | -16.6
41 | Cc1nn(CC(=O)NCCCN2CCC(N3CCCCC3)CC2)c(=O)c2cc(-c3ccccc3)nn12 | 8.61
42 | COc1ccc(CNC(=O)C(=O)NCCC2CCCCN2S(=O)(=O)c2ccccc2)cc1 (centres unmarked) | 5.18
43 | COc1ccc(NC(=O)CN2CCN(c3nc(-c4ccc(F)cc4)cs3)CC2)c(OC)c1 | 19.2
44 | COc1cc(CCCN2CCNC[C@@H]2Cc2ccc(O)cc2)cc(OC)c1OC | 9.46
45 | Cc1ccc(S(=O)(=O)Cc2ccc(C(=O)NCCCN3CCN(C)CC3)o2)cc1 | 16.7
46 | CCn1ccnc1CN1CCCC(C(=O)c2cccc(C(F)(F)F)c2)C1 (centres unmarked) | 1.55
47 | Cc1cc(=O)oc2c(CN3CCCC3)c(O)c(Cl)cc12 | 7.07
48 | COc1ccc(OCC(=O)NCC(c2ccc(OC)cc2)N2CCCCC2)cc1 (centres unmarked) | -1.58
49 | Cc1ccc(S(=O)(=O)NCc2ccco2)cc1C(N)=O | 8.9
50 | Cc1cc(N2C(=O)C(=O)/C(=C(/O)c3ccc(F)cc3)C2c2cccc(Br)c2)no1 (centres unmarked) | 8.94
51 | COc1ccc(S(=O)(=O)N2CCCCCC2)cc1C(=O)N1CCCCC1 | 3.64
52 | O=C(Nc1cccnc1)c1ccc2snnc2c1 | 5.05
53 | Cc1nc(OCc2c(C)noc2C)c2ccccc2n1 | 13.1
54 | CCC(=O)Nc1cc(OC)cc(OC)c1 | 7.75
55 | COCCNC(=O)CNC(=S)N(Cc1ccccc1)Cc1cccnc1 | 3.49
56 | O=C(Nc1cccc(-c2nc3ncccc3o2)c1)c1sc2cc(Cl)ccc2c1Cl | 7.56
